Many values rest on one well or one pass, so single values are uncertain.
Key:
CHO-K1 [1] = assay: micronucleus frequency (% of nucleated events); higher = more micronuclei (genotoxic)
CHO-K1 [2] = assay: hypodiploid nuclei frequency (% of nucleated events); higher = more hypodiploid events (aneugenic)
Method: (§1)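 Flow-cytometric in vitro micronucleus assay (Litron MicroFlow) in CHO-K1 cells in 96-well plates, 19 concentrations (4.5-200 µM, n=1 per concentration). Without S9, cells were exposed for 24 h and sampled at 48 h. With Aroclor 1254-induced rat liver S9, cells were exposed for 3-4 h and sampled at 27-28 h. Read-outs are %MN and %hypodiploid nuclei relative to nucleated events, and relative survival as the nuclei-to-bead ratio versus the 1% DMSO vehicle control (x100).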

CHO-K1 [3] = assay: relative survival (nuclei to bead ratio vs DMSO control) (% of vehicle control); higher = more surviving cells
Method: as §1
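Wherever hypodiploid nuclei frequency (% of nucleated events) is given: hypodiploid nuclei gated on a flow cytometer with 488 nm excitation after SYTOX Green staining, cultures at 37 °C, positive controls vinblastine without S9 and cyclophosphamide with S9.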
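Wherever micronucleus frequency (% of nucleated events) is given: cells lysed with nuclei stained by SYTOX Green, then micronucleus-gated events counted against nucleated events by flow cytometry with 488 nm excitation.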
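Wherever relative survival (nuclei to bead ratio vs DMSO control) is given: Lysed-cell nuclei stained with SYTOX Green and counted against counting beads by flow cytometry at 488 nm excitation, with vinblastine (no S9) and cyclophosphamide (plus S9) as positive controls.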

Nc1ccc(C(=O)O)cc1 [4-Aminobenzoic acid]
Settings | hypodiploid nuclei frequency, CHO-K1 [2] [%] | micronucleus frequency, CHO-K1 [1] [%] | relative survival, CHO-K1 [3]
concentration: 4.5 (µM), S9 metabolic activation: with S9, exposure time: 3-4 hours | 0.24 | 2.06 | 81
concentration: 4.5 (µM), S9 metabolic activation: without S9, exposure time: 24 hours | 0.46 | 1.6 | 110
concentration: 5.63 (µM), S9 metabolic activation: with S9, exposure time: 3-4 hours | 0.22 | 1.48 | 89
concentration: 5.63 (µM), S9 metabolic activation: without S9, exposure time: 24 hours | 0.62 | 1.52 | 127
concentration: 7.04 (µM), S9 metabolic activation: with S9, exposure time: 3-4 hours | 0.3 | 1.76 | 82.6
concentration: 7.04 (µM), S9 metabolic activation: without S9, exposure time: 24 hours | 0.44 | 1.46 | 111
concentration: 8.8 (µM), S9 metabolic activation: with S9, exposure time: 3-4 hours | 0.18 | 1.18 | 95.3
concentration: 8.8 (µM), S9 metabolic activation: without S9, exposure time: 24 hours | 0.64 | 1.28 | 117
concentration: 11 (µM), S9 metabolic activation: with S9, exposure time: 3-4 hours | 0.42 | 1.82 | 109
concentration: 11 (µM), S9 metabolic activation: without S9, exposure time: 24 hours | 0.44 | 1.46 | 112
concentration: 13.7 (µM), S9 metabolic activation: with S9, exposure time: 3-4 hours | 0.24 | 0.9 | 88.7
concentration: 13.7 (µM), S9 metabolic activation: without S9, exposure time: 24 hours | 0.36 | 1.32 | 137
concentration: 17.2 (µM), S9 metabolic activation: with S9, exposure time: 3-4 hours | 0.18 | 1.22 | 77.1
concentration: 17.2 (µM), S9 metabolic activation: without S9, exposure time: 24 hours | 0.42 | 1.3 | 116
concentration: 21.5 (µM), S9 metabolic activation: with S9, exposure time: 3-4 hours | 0.22 | 0.92 | 94.6
concentration: 21.5 (µM), S9 metabolic activation: without S9, exposure time: 24 hours | 0.42 | 1.18 | 124
concentration: 26.8 (µM), S9 metabolic activation: with S9, exposure time: 3-4 hours | 0.06 | 1.14 | 86.5
concentration: 26.8 (µM), S9 metabolic activation: without S9, exposure time: 24 hours | 0.52 | 1.2 | 103
concentration: 33.6 (µM), S9 metabolic activation: with S9, exposure time: 3-4 hours | 0.16 | 1.44 | 107
concentration: 33.6 (µM), S9 metabolic activation: without S9, exposure time: 24 hours | 0.7 | 1.88 | 117
concentration: 41.9 (µM), S9 metabolic activation: with S9, exposure time: 3-4 hours | 0.32 | 1.22 | 89.3
concentration: 41.9 (µM), S9 metabolic activation: without S9, exposure time: 24 hours | 0.56 | 1.5 | 125
concentration: 52.4 (µM), S9 metabolic activation: with S9, exposure time: 3-4 hours | 0.32 | 1.2 | 88.3
concentration: 52.4 (µM), S9 metabolic activation: without S9, exposure time: 24 hours | 0.7 | 1.4 | 101
concentration: 65.5 (µM), S9 metabolic activation: with S9, exposure time: 3-4 hours | 0.22 | 1.28 | 83.2
concentration: 65.5 (µM), S9 metabolic activation: without S9, exposure time: 24 hours | 0.52 | 1.14 | 101
concentration: 81.9 (µM), S9 metabolic activation: with S9, exposure time: 3-4 hours | 0.22 | 1.04 | 99.4
concentration: 81.9 (µM), S9 metabolic activation: without S9, exposure time: 24 hours | 0.54 | 1.36 | 97.7
concentration: 102 (µM), S9 metabolic activation: with S9, exposure time: 3-4 hours | 0.12 | 0.98 | 79.8
concentration: 102 (µM), S9 metabolic activation: without S9, exposure time: 24 hours | 0.8 | 1.62 | 120
concentration: 128 (µM), S9 metabolic activation: with S9, exposure time: 3-4 hours | 0.24 | 1.12 | 82.3
concentration: 128 (µM), S9 metabolic activation: without S9, exposure time: 24 hours | 0.94 | 1.3 | 108
concentration: 160 (µM), S9 metabolic activation: with S9, exposure time: 3-4 hours | 0.14 | 1.14 | 71.7
concentration: 160 (µM), S9 metabolic activation: without S9, exposure time: 24 hours | 0.94 | 1.28 | 116
concentration: 200 (µM), S9 metabolic activation: with S9, exposure time: 3-4 hours | 0.14 | 0.78 | 73.1
concentration: 200 (µM), S9 metabolic activation: without S9, exposure time: 24 hours | 1.4 | 1.72 | 88.5

From the supplement of paper PMC9151546
